About 330 (14%) of roughly 2,300 compounds showed activity.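 The calls were made as follows: active = median modified Z-score above 1.96; inactive = 1.96 or below.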 This is a selection; strong and weak results do not stand in their true shares.

Results on 47 compounds are retold here after the supplement of paper PMC10498489.

The assay deals with HepG2 Srxn1-GFP reporter cells (+30 nM CDDO-Me). The experiment in a line: Srxn1-GFP intensity median modified Z-score relative to plate median; higher = stronger NRF2 / oxidative stress reporter activation, active = hit call of the paper. To be noted: 10 µM; exposure time: 24h. An outline of the steps: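 The modified Z-score of GFP intensity was computed per plate, and the median over replicates is reported. HepG2 Srxn1-GFP BAC reporter cells in three replicate plates were treated for 24 h with compound at 10 μM plus an NRF2 activator at 30 nM (≤0.1% DMSO). Per-cell cytoplasmic GFP came from confocal images, excluding those with under 100 cells, and scaling used 1.4826 × median absolute deviation.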
Regarding `Clc1ccc(C(Cn2ccnc2)OCc2ccsc2Cl)c(Cl)c1` (configuration not stated) [euspeclibcmpd1174], the “Srxn1-GFP intensity median modified Z-score” value was active: 15.7.

As to `CCC(C)C(=O)O[C@H]1C[C@H](O)C=C2C=C[C@H](C)[C@H](CC[C@@H](O)C[C@@H](O)CC(=O)O)C21` (some centres not stated) [euspeclibcmpd2392], the “Srxn1-GFP intensity median modified Z-score” value was inactive: -0.0232.

On to `CC(C)NCC(O)COc1ccc(CCOCC2CC2)cc1` (configuration not stated) [euspeclibcmpd810], for which the “Srxn1-GFP intensity median modified Z-score” value is inactive: -0.00211.

In the case of `O=C(O)c1cn(C2CC2)c2cc(N3CCNCC3)c(F)cc2c1=O` [euspeclibcmpd592], the “Srxn1-GFP intensity median modified Z-score” value is inactive: -0.385.

`Cc1cc(C(C)(C)C)c(O)c(C(C)(C)C)c1` [euspeclibcmpd1001]: the “Srxn1-GFP intensity median modified Z-score” value was active: 14.5.

On to `Cn1c(=O)[nH]c2ncn(C)c2c1=O` [euspeclibcmpd1780], for which the “Srxn1-GFP intensity median modified Z-score” value was inactive: 0.2.

With `Cn1cnc2c1c(=O)[nH]c(=O)n2C` [euspeclibcmpd947], the “Srxn1-GFP intensity median modified Z-score” value is inactive: -0.101.

Consider `NCCCNCCCCNCCCN` [euspeclibcmpd1526], for which the “Srxn1-GFP intensity median modified Z-score” value was inactive: 0.00434.

With `CCN(CC)CCNC(=O)c1cc(Cl)c(N)cc1OC` [euspeclibcmpd197], the “Srxn1-GFP intensity median modified Z-score” value was active: 86.5.

Regarding `O=C(O)CCNC(=O)c1ccccc1` [euspeclibcmpd1171], the “Srxn1-GFP intensity median modified Z-score” value is inactive: -0.393.

Consider `OCCN=CCNc1ccc(NCCNCCO)c2c(O)c3c(O)ccc(O)c3c(O)c12` [euspeclibcmpd568], for which the “Srxn1-GFP intensity median modified Z-score” value was inactive: -1.55.

Turning to `CC(=O)NC(Cc1ccccc1)C(=O)O` (configuration not stated) [euspeclibcmpd2074], the “Srxn1-GFP intensity median modified Z-score” value is inactive: -0.102.

For `CC(=O)NC(Cc1ccccc1)C(=O)O` (configuration not stated) [euspeclibcmpd1186], the “Srxn1-GFP intensity median modified Z-score” value is inactive: -0.292.

In the case of `CCCCCCCCCCCCCCCCCCCCCCO` [euspeclibcmpd1090], the “Srxn1-GFP intensity median modified Z-score” value is inactive: -0.229.

In the case of `NCCCC(=O)O` [euspeclibcmpd1048], the “Srxn1-GFP intensity median modified Z-score” value was inactive: -0.298.

Take `CC(=O)Oc1cc(OC(C)=O)c2c(c1)O[C@H](c1ccc(OC(C)=O)c(OC(C)=O)c1)[C@@H](OC(C)=O)C2` [euspeclibcmpd2426]: the “Srxn1-GFP intensity median modified Z-score” value was inactive: -0.397.

With `NS(=O)(=O)c1cc2c(cc1Cl)NC(C(Cl)Cl)NS2(=O)=O` (configuration not stated) [euspeclibcmpd305], the “Srxn1-GFP intensity median modified Z-score” value is inactive: -0.276.

Regarding `C=C(NC(=O)C(C)=NC(=O)c1csc(C2=NC3c4csc(n4)C4NC(=O)c5csc(n5)C(C(C)(O)C(C)O)NC(=O)C5CSC(=N5)C(=CC)NC(=O)C(C(C)O)NC(=O)c5csc(n5)C3(CC2)NC(=O)C(C)NC(=O)/C(C)=N/C(=O)C(C)NC(=O)C(C(C)CC)NC2C=Cc3c(C(C)O)cc(nc3C2O)C(=O)OC4C)n1)C(N)=O` (configuration not stated) [euspeclibcmpd703], the “Srxn1-GFP intensity median modified Z-score” value is active: 19.1.

With `CN(C)CCOC(c1ccccc1)c1ccccc1` [euspeclibcmpd2387], the “Srxn1-GFP intensity median modified Z-score” value was inactive: 0.421.

`CN(C)CCOC(c1ccccc1)c1ccccc1` [euspeclibcmpd2254]: the “Srxn1-GFP intensity median modified Z-score” value was inactive: 0.213.

As to `CC(=O)Oc1ccccc1C(=O)N=c1[nH]cc([N+](=O)[O-])s1` [euspeclibcmpd615], the “Srxn1-GFP intensity median modified Z-score” value is active: 2.79.

For `COc1ccc2[nH]c([S+]([O-])Cc3ncc(C)c(OC)c3C)nc2n1` (configuration not stated) [euspeclibcmpd1091], the “Srxn1-GFP intensity median modified Z-score” value is inactive: 0.412.

As for `CCN(CC)C(=O)c1cccnc1` [euspeclibcmpd924], the “Srxn1-GFP intensity median modified Z-score” value was inactive: -0.51.

Consider `CCN(CC)C(=O)c1cccc(C)c1` [euspeclibcmpd939], for which the “Srxn1-GFP intensity median modified Z-score” value was inactive: -0.0686.

For `CCCN(CCC)S(=O)(=O)c1ccc(C(=O)O)cc1` [euspeclibcmpd246], the “Srxn1-GFP intensity median modified Z-score” value is inactive: 0.252.

As for `C=C(C)[C@@H]1CC[C@]2(C(=O)O)CC[C@]3(C)[C@H](CCC4[C@@]5(C)CC[C@H](O)C(C)(C)C5CC[C@]43C)[C@@H]12` (some centres not stated) [euspeclibcmpd1473], the “Srxn1-GFP intensity median modified Z-score” value was inactive: -0.366.

As to `COc1c(C/C=C(\C)CCC(=O)O)c(O)c2c(O)occ2c1C` [euspeclibcmpd334], the “Srxn1-GFP intensity median modified Z-score” value is active: 11.8.

Consider `CN(C)CCN(Cc1ccccc1)c1ccccn1` [euspeclibcmpd312], for which the “Srxn1-GFP intensity median modified Z-score” value is inactive: -0.754.

Regarding `Clc1ccc(CSC(Cn2ccnc2)c2ccc(Cl)cc2Cl)cc1` (configuration not stated) [euspeclibcmpd401], the “Srxn1-GFP intensity median modified Z-score” value was active: 22.5.

In the case of `N=C(N)NC(=O)Cc1c(Cl)cccc1Cl` [euspeclibcmpd784], the “Srxn1-GFP intensity median modified Z-score” value is inactive: 1.94.

Take `COc1cc(O)c(C(=O)c2ccccc2)cc1S(=O)(=O)O` [euspeclibcmpd799]: the “Srxn1-GFP intensity median modified Z-score” value is inactive: -0.0206.

Turning to `Clc1ccc(Cn2c(CN3CCCC3)nc3ccccc32)cc1` [euspeclibcmpd1234], the “Srxn1-GFP intensity median modified Z-score” value is inactive: -0.0615.

Take `O=C1c2ccccc2C(=O)C1c1ccc(Cl)cc1` [euspeclibcmpd1181]: the “Srxn1-GFP intensity median modified Z-score” value is inactive: 0.145.

In the case of `O=C(O)COCCN1CCN(C(c2ccccc2)c2ccc(Cl)cc2)CC1` (configuration not stated) [euspeclibcmpd2104], the “Srxn1-GFP intensity median modified Z-score” value is inactive: -0.409.

Take `CCC1(c2ccccc2)NC(=O)N(C)C1=O` (configuration not stated) [euspeclibcmpd2205]: the “Srxn1-GFP intensity median modified Z-score” value was inactive: 0.812.

Regarding `COc1cc(C(=O)NCCCCCC(=O)O)cc(OC)c1OC` [euspeclibcmpd778], the “Srxn1-GFP intensity median modified Z-score” value is inactive: -0.747.

Take `CCc1c(C)[nH]c2c1C(=O)C(CN1CCOCC1)CC2` (configuration not stated) [euspeclibcmpd2164]: the “Srxn1-GFP intensity median modified Z-score” value was inactive: 0.203.

As for `Cc1ncc(CO)c(CO)c1O` [euspeclibcmpd795], the “Srxn1-GFP intensity median modified Z-score” value was inactive: 0.71.

With `N=C(N)NS(=O)(=O)c1ccc(N)cc1` [euspeclibcmpd1062], the “Srxn1-GFP intensity median modified Z-score” value was inactive: -0.469.

As for `C=CC1=C(C)c2cc3[nH]c(cc4[nH]c(cc5nc(cc1n2)=C(C)C5=CCC(=O)O)c(CCC(=O)O)c4C)c(C)c3=CC` [euspeclibcmpd1059], the “Srxn1-GFP intensity median modified Z-score” value is inactive: 0.562.

In the case of `COc1cc2oc3cc(OC)c(OC)c(C=CC(C)C)c3c(=O)c2c(O)c1CC=C(C)C` [euspeclibcmpd1769], the “Srxn1-GFP intensity median modified Z-score” value was inactive: -0.34.

As to `O=C1OCCc2oc(O)cc21` [euspeclibcmpd1348], the “Srxn1-GFP intensity median modified Z-score” value was active: 33.

For `Cc1cc(=O)oc2cc(O)cc(O)c12` [euspeclibcmpd1994], the “Srxn1-GFP intensity median modified Z-score” value is inactive: -0.357.

With `CC(=O)Oc1ccccc1C(=O)O` [euspeclibcmpd28], the “Srxn1-GFP intensity median modified Z-score” value is active: 61.

As to `CC=C(C(=CC)c1ccc(O)cc1)c1ccc(O)cc1` [euspeclibcmpd91], the “Srxn1-GFP intensity median modified Z-score” value was active: 13.6.

Take `COc1ccc2c(c1)OC/C(=C\c1ccc(OC)c(O)c1)C2=O` [euspeclibcmpd1638]: the “Srxn1-GFP intensity median modified Z-score” value is active: 19.3.

Consider `CC(C(=O)O)c1ccc2c(c1)Cc1cccnc1O2` (configuration not stated) [euspeclibcmpd1088], for which the “Srxn1-GFP intensity median modified Z-score” value was inactive: -0.515.
